# Assay results: PubChem BioAssay AID686979 (National Center for Advancing Translational Sciences (NCATS), 2013)
# Hit rate of the full screen: of about 420,000 compounds, about 50,000 (12%) were called active. This list was built around the results that the source calls inconclusive (neither active nor inactive); the mix of calls is not that of the screen. Calls come from the whole dose curve; as a rule, active = well fitted inhibition curve with a large enough effect; inconclusive = small, poorly fitted or top-dose-only effect; inactive = flat fitted curve, though single readings scatter. Potencies of inconclusive entries are left out as doubtful fits.
# Assay: qHTS for Inhibitors of human tyrosyl-DNA phosphodiesterase 1 (TDP1): qHTS in cells in presence of CPT; note: nearly all actives have a fitted effect of over 55% in size
# Details: chicken DT40 Tdp1-/-;hTDP1 cells + 20 nM CPT, ATP luminescence, 48 h; activity change, negative = growth inhibition: at 46.2 µM (top of the series) unless noted
# Outline: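 Chicken DT40 Tdp1-/- cells stably complemented with human TDP1 were seeded at 400 cells/well in medium containing 20 nM camptothecin, exposed to pin-transferred compounds, and grown at 37 °C for at least 48 hr. Viability was read as ATP luminescence.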
# % is set by controls: 0 for no effect and ±100 for the full control effect; potency is the fitted concentration of half-maximal effect; tags give direction and shape of the fitted curve.
Structure (SMILES),Potency,"activity change, negative = growth inhibition"
COc1ccc(-c2cc(C(C)=O)c(C)n2CCC(=O)Nc2cc(Cl)ccc2C)cc1,active: 20.6 µM,
CN(C)CCCNC(=S)Nc1ccc(-c2ccccc2)cc1,"inconclusive [inhibitor, single point]",
CN(Cc1nccn1C)C(=O)CC1C(=O)NCCN1Cc1ccccc1C(F)(F)F (stereo not given),"inconclusive [inhibitor, single point]",
CCCNC(=O)Cc1ccsc1,,inactive: -8.7%
COc1ccc(OC)c(NC(=O)CN(c2ccc(C(C)C)cc2)S(=O)(=O)c2c(C)noc2C)c1,"inconclusive [inhibitor, single point]",
COc1ccc(NC(=O)CSc2nnc(-c3cccs3)n2-c2ccccc2)cc1,,inactive: -5.28%
O=C(NCc1ccccc1Cl)c1csc([C@@H]2O[C@H](CO)[C@H](O)[C@H](O)[C@H]2O)n1,,inactive: -18.2%
CC(=O)Nc1nnc([N+](=O)[O-])s1,active: 18.4 µM,
Nc1ccc(-c2nc3ccc(-c4nc5ccccc5o4)cc3[nH]2)cc1,active: 14.6 µM,
O=C(O)c1ccccc1C(c1ccc(O)cc1)c1ccc(O)cc1,,inactive: -9.44%
CCOc1ccc(C(=O)Nc2ccc3[nH]ncc3c2)cc1,"inconclusive [inhibitor, single point]",
CC(C)CCNC(=O)c1onc(CSc2ccc(F)c(F)c2)c1C(=O)NCCC(C)C,"inconclusive [inhibitor, single point]",
CCOc1ccccc1NC(=O)C1=C(C)NC(=S)NC1c1cccs1 (stereo not given),"inconclusive [inhibitor, partial curve]",
OC(COc1ccc2cc(Br)ccc2c1)CN1CCCC1 (stereo not given),"inconclusive [inhibitor, single point]",
O=C(COc1ccccc1)Nc1ccc2nc(SCCOc3ccccc3)sc2c1,,inactive: -23%
CC(=O)Oc1ccc(-c2csc(Nc3cccc(C)n3)n2)cc1,"inconclusive [inhibitor, partial curve, poor fit]",
CCN(CC)S(=O)(=O)c1ccc(N=Nc2cc(C)cc(Br)c2O)cc1,,inactive: -22.1%
C/C(=N\NC(=O)COc1ccc(C#N)cc1)c1ccc(N2CCOCC2)cc1,"inconclusive [inhibitor, partial curve, poor fit]",
Cc1ccc(C(=O)CSc2nnc3n2CCCCC3)s1,,inactive: 1.63%
Cc1cc(Br)ccc1OCC(=O)N1CCCCCC1,"inconclusive [inhibitor, single point]",
Cc1ccc(Cl)cc1N1CCN(C(=O)c2ccc(CS(=O)(=O)c3ccccc3C)o2)CC1,"inconclusive [inhibitor, single point]",
CCN(CC(=O)NCc1ccc(F)cc1)C(=O)/C=C/c1cc(OC)ccc1OC,,inactive: 2.8%
OCc1nn2c(c1Br)NC(c1ccccc1)CC2C(F)(F)F (stereo not given),"inconclusive [inhibitor, single point]",
CC(C)CC1NC(=O)N(CC(=O)Nc2ccc3c(c2)CCC3)C1=O (stereo not given),,inconclusive: -34.9% [inhibitor]
COc1cc(C[C@@H](C)[C@@H](C)Cc2ccc(O)c(OC)c2)ccc1O,"inconclusive [inhibitor, single point]",

Structure (SMILES),Potency,"activity change, negative = growth inhibition"
CCC(C)c1ccc(NC(=O)c2cccnc2)cc1 (stereo not given),,inconclusive: -34.6% [inhibitor]
O=C(CN1C(=O)NC(c2ccccc2)(c2ccccc2)C1=O)NCCNCCO,,inactive: -15.5%
Cc1cc(C)cc(NC(=O)CSc2ccccc2)c1,,inactive: -19.7%
CC1=C(C(=O)OCC2CCCO2)C(c2ccccc2)NC(=O)N1 (stereo not given),,inactive: -25%
COc1ccc(CNS(=O)(=O)c2ccc(-c3cc(C)no3)cc2)cc1,,inactive: -23.1%
O=C(Cc1ccc([N+](=O)[O-])cc1)NCc1ccccn1,active: 4.61 µM,
COc1cc(C2NC(=O)c3c(sc4c3CCN(C)C4)N2)cc(OC)c1OC (stereo not given),"inconclusive [inhibitor, single point]",
O=C(NCC1CCOCC1)c1ccc(-c2ccc(F)c(F)c2)c2ccoc12,active: 11.6 µM,
O=C(NCc1ccccc1)C(c1cccc2ccccc12)n1c(=O)c(-c2ccccc2)nc2ccccc21 (stereo not given),active: 13 µM,
O=C(Nc1ccc2oc(-c3ccncc3)nc2c1)c1cccs1,,inactive: -8.77%
Cc1ccc(-c2[nH]c(-c3ccc(C(=O)O)cc3)nc2-c2ccccc2)cc1,,inactive: -11.1%
COC(=O)CN(n1cnnc1)S(=O)(=O)c1ccccc1Cl,,inactive: -14.1%
O=C(CSc1nc2ccccc2c(=O)n1-c1ccc(F)cc1F)NC1CC1,,inactive: -10.2%
CC(=O)NC12CC3CC(C1)CC(C(=O)N1CCN(S(=O)(=O)c4cccs4)CC1)(C3)C2,,inactive: -8%
CN(c1nc2ccccc2nc1Cl)S(=O)(=O)c1ccccc1,"inconclusive [inhibitor, single point]",
COc1ccc(CC(=O)Nc2c(C(=O)N3CCN(c4ccccc4OC)CC3)oc3ccccc23)cc1OC,"inconclusive [inhibitor, partial curve, poor fit]",
O=C(NCCCCc1ccccc1)c1cccc(NC(=O)C2CCCC2)c1,"inconclusive [inhibitor, partial curve]",
CO[C@H]1[C@H](NC(=O)c2ccsc2)c2ccccc2C12CCN(Cc1cccn1-c1ccccn1)CC2,,inactive: 9.88% [at 9.04 µM]
COc1ccc(NC(=O)CSc2n[nH]c(=O)n2C2CC2)cc1OC,,inactive: 8.5%
CC1(C)NC(=O)N(CN2C(=O)NC(C)(C)C2=O)C1=O,,inactive: -5.49%
CCc1ccc(CNC(=O)C2CCN(c3nn4cc(-c5ccc(F)cc5)nc4s3)CC2)cc1,,inactive: -23%
COc1ccc(Br)cc1CN1C(=O)c2ccccc2C1C(=O)NC1CCCCCC1 (stereo not given),"inconclusive [inhibitor, single point]",
COc1ccc(N2CCN(C(=O)c3ccc(Cn4c(=S)[nH]c5ccc(N6CCOCC6)cc5c4=O)cc3)CC2)cc1,active: 23.1 µM,
Cc1cc(C(=O)COC(=O)C2=NNC(=O)CC2)c(C)n1-c1ccc(OC(F)F)cc1,"inconclusive [inhibitor, single point]",
CC1CCCCN1C(=O)c1cc(S(=O)(=O)N2CCOCC2)ccc1Cl (stereo not given),,inactive: -2.63%

Structure (SMILES),Potency,"activity change, negative = growth inhibition"
O=S(=O)(c1cnc(Cl)c(Cl)c1)N1CCCc2ccccc21,active: 18.4 µM,
CCc1ccc(NC(=O)c2cnc(SC)nc2C)cc1,"inconclusive [inhibitor, partial curve]",
Cc1ccc(N2CCOCC2)c2c1C(=O)c1ccccc1C2=O,"inconclusive [inhibitor, partial curve]",
CC(=O)c1ccccc1OCc1ccc(C(=O)c2ccccc2)cc1,active: 16.4 µM,
COc1ccc(C2SCCN2C(=S)Nc2cccc(Cl)c2)cc1 (stereo not given),"inconclusive [inhibitor, single point]",
CC(C)CC(NC(N)=O)C(=O)OCC(=O)Nc1ccc(OC(F)F)cc1 (stereo not given),active: 23.1 µM,
CCn1ccnc1[C@@H]1C[C@H]2CN(Cc3ccccc3OC)C(=O)[C@]23CCCN13,,inactive: -7.95%
Cc1ccc2nc(NC(=O)C3CCN(C(=O)c4ccc(F)cc4)CC3)sc2c1,"inconclusive [inhibitor, single point]",
Cc1ccc(SCCNC(=S)Nc2cc(C)cc(C)c2)cc1,"inconclusive [inhibitor, partial curve]",
CSc1cccc(NC(=O)CCCn2c(=O)c3cccn3c3cccnc32)c1,"inconclusive [inhibitor, single point]",
COc1ccc(S(=O)(=O)N2CCCN(CC(=O)Nc3ccc(OC)c(Cl)c3)CC2)cc1,"inconclusive [inhibitor, single point]",
COc1ccc(-c2nc3c4ccccc4ccn3c2Cc2ccccc2)cc1OC,"inconclusive [inhibitor, single point]",
COc1cc(C2c3sc(=O)[nH]c3SC3C4CCC(C4)C23)ccc1O (stereo not given),,inactive: -0.691%
CC(/C=N/n1c(-c2ccco2)n[nH]c1=S)=C\c1ccccc1,"inconclusive [inhibitor, single point]",
CCOC(=O)[C@H]1[C@H]2COc3ccc(Cl)cc3[C@@H]2N2C(=O)c3ccccc3NC(=O)[C@@]12C,"inconclusive [inhibitor, single point]",
Cc1ccc(C(CC(=O)N2CCNCC2)c2ccccc2)c(O)c1C (stereo not given),,inactive: -26.9%
COc1ccc(NC(=S)N2CCC(C(=O)c3ccc(F)cc3)CC2)cc1,"inconclusive [inhibitor, single point]",
CN(CCc1ccccc1)C(=O)c1cccc(NC(=O)Cc2cccc(NC(=O)C3CCCN(S(=O)(=O)c4cccc([N+](=O)[O-])c4)C3)c2)c1 (stereo not given),"inconclusive [inhibitor, partial curve, poor fit]",
C/C(=N\Nc1ccc(Cl)c(C(=O)O)c1)c1ccc[nH]1,,inactive: 3.76%
CCOC(=O)c1c(C)[nH]c(C)c1S(=O)(=O)N1CCCC(C(=O)N2CCN(c3cccc(C)c3C)CC2)C1 (stereo not given),active: 14.6 µM,
COc1cccc(C(=O)CN(C(=O)c2ccc(Cl)c(Cl)c2)N2C(=O)C3CCCCC3C2=O)c1 (stereo not given),,inactive: -20.8%
Cc1nn(C)cc1C(=O)/C=C/c1ccc([N+](=O)[O-])cc1,"inconclusive [inhibitor, single point]",
COc1ccc(Cl)cc1NC(=O)c1nn(-c2ccc(C)cc2)c(=O)n(C)c1=O,active: 16.4 µM,
COc1cccc(NC(=O)CN(C)C(=O)c2oc3c(ccc4ccccc43)c2C)c1,,inactive: 11.7%
CCSc1nc(-c2ccco2)ccc1C#N,active: 23.1 µM,
